From the supplement of paper PMC12217912
This is one part of the list. Sequences were assembled here from the parent chain. Values near 0.05 are background.

B1: TEV protease; numbered along this chain (parent)
chain: MGESLFKGPRDYNPISSSICHLTNESDGHTTSLYGIGFGPFIITNKHLFRRNNGTLVVQSLHGVFKVKDTTTLQQHLVDGRDMIIIRMPKDFPPFPQKLKFREPQREERICLVTTNFQTKSMSSMVSDTSCTFPSGDGIFWKHWIQTKDGQCGSPLVSTRDGFIVGIHSASNFTNTNNYFTSVPKNFMELLTNQEAQQWVSGWRLNADSVLWGGHKVFMVKPEEPFQPVKEATQL

Variants of: B1
Experiment: raw area under fraction-flipped curve 0-4 h after induction (AUC4h, not background-subtracted), DNA-recorder readout of cleavage of the substrate (dimensionless); higher = more cleavage of the substrate by the protease variant
Settings: temperature: 34 °C; time window: 0-4 h after rhamnose induction
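Note: Bxb1 expression induced with 0.2% (w/v) L-rhamnose at OD600 near 0.5, cultures sampled hourly, flipped fraction per protease–substrate barcode pair counted by paired-end Illumina sequencing.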

Row | Variant | area with substrate ENLGFQS | area with substrate ENLHFQS | area with substrate ENLIFQS | area with substrate ENLLFQS | area with substrate ENLPFQS | area with substrate ENLRFQS | area with substrate ENLSFQS | area with substrate ENLTFQS | area with substrate ENLFFQS | area with substrate ENLKFQS | area with substrate ENLNFQS | area with substrate ENLQFQS | area with substrate ENLVFQS | area with substrate ENLDFQS | area with substrate ENLEFQS | area with substrate ENLWFQS | area with substrate ENLMFQS
1 | MGESLFKGPRDYNPISSSICHLTNESDGHTTSLYGIGFGPFIITNKHLFRRNNGTLVVQSLHGVFKVKDTTTLQQMLVDGRDMIIIRMPKDFPPFPQKLKFREPQREERICLVTTNFQTKSMSSMVSDTSCTFPSGDGIFWKHWIQTKDGQCGSPLVSTRDGFIVGIHSASNFTNTNNYFTSVPKNFMELLTNQEAQQWVSGWRLNADSVLWGGHKVFMVKPEEPFQPVKEATQL [H76M] | 0.0669 | 0.034 | 0.0808 | 0.0649 | 0.0682 | 0.0733 | 0.0748 | 0.0724 |  |  |  |  |  |  |  |  | 
2 | MGESLFKGCRDYNPISSSICHLTNESDGHTTSLYGIGFGPFIITNKHLFRRNNGTLVVQSLHGVFKVKDTTTLQQHLVDGRDMIIIRMPKDFPPFPQKLKFREPQREERICLVTTNFQTKSMSSMVSDTSCTFPSGDGIFWKHWIQTKDGQCGSPLVSTRDGFIVGIHSASNFTNTNNYFTSVPKNFMELLTNQEAQQWVSGWRLNADSVLWGGHKVFMVKPEEPFQPVKEATQL [P9C] |  | 0.0776 |  | 0.0767 | 0.0527 |  | 0.0777 |  | 0.0598 | 0.0696 | 0.0677 | 0.0711 | 0.0786 |  |  |  | 
3 | MGESLFKGPRDYNPISSSICHLTNESDGHTTSLYGIGFGPFIITNKHLFRRNNGTLVVQSLHGVFKVKDTTTLQQHLVDGRDMIIIRMPKDFPPFPQKLKFREPQREERICLVTTNFQTKSMSSMVSDTSCTFPSGDGIFWKHWIQTKDGQCGSPLVSTRDGFIVGIHSASNFTNTNNYFTSVPKNFMELLTNQEAQQWVSGWRLNADSVLWGGHKVFMVKPEEPFQPKKEATQL [V229K] |  | 0.0754 |  | 0.0766 | 0.0444 |  | 0.0583 |  | 0.0989 |  | 0.0706 | 0.0777 |  | 0.0599 | 0.0588 |  | 
4 | MGESLFKGPRDYNPISSSICHLTNESDGHTTSLYGIGFGPFIITNKHLFRRNNGTLVVQSLHGVFKVKDTTTLQQHLVDGRDMIIIRMPKDFPPFPQKLKFREPQREERICLVTTNFQTKSMSSMVSDTSCTFPSGDGIFWKHWIQTKDGQCGSPLVSTRDGFIVGIHSASNFSNTNNYFTSVPKNFMELLTNQEAQQWVSGWRLNADSVLWGGHKVFMVKPEEPFQPVKEATQL [T174S] | 0.06 |  | 0.0856 |  |  |  |  |  | 0.0957 |  |  |  |  |  | 0.0628 |  | 
5 | MGESLFKGPRDYNPISSSICHLTNESDGHTTSLYGIGFGPFIITNKHLFRRNNGTLVVQSLHGVFKVKDTTTLQQHLVDGRDMIIIRMPKDFPPFPQKLKFREPQREERICLVTTNFQTKSMSSMVSDTSCTFPSGDGIFWKHWIQTKDGQCGSPLVSTRDGFIVGIHSASNFTNTNNYFTSVPKNFMELLTNQEAQQWVSGWRLNADSVLGGGHKVFMVKPEEPFQPVKEATQL [W212G] |  |  | 0.0661 | 0.0661 | 0.0568 |  | 0.0671 |  | 0.0628 | 0.0599 | 0.0675 | 0.0597 | 0.0629 | 0.0782 |  | 0.053 | 
6 | MGESLFKGPRDYNPISSSICHLTNESDGHTTSLYGIGFGPFIITNKHLFRRNNGTLVVQSLHGVFKVKDTTTLQQHLVDGRDMIIIRMPKDFPPFPQKLKFREPQREERICLVTTNFQTKSMSSMVSDTSCTFPSGDGIFWKHWIQTKDGQCGSPLVSTRDGFIVGIHSASNFTNTNNYFTSVPKNFMELLTNQEAQQWVSGWRLNADSVLWGGHKVFMVKPEEPEQPVKEATQL [F226E] | 0.066 |  | 0.0951 | 0.0804 | 0.0509 |  | 0.0769 |  | 0.0956 | 0.0679 | 0.0609 | 0.0788 | 0.0897 | 0.0705 |  |  | 
7 | MGESLFKGPRDYNPMSSSICHLTNESDGHTTSLYGIGFGPFIITNKHLFRRNNGTLVVQSLHGVFKVKDTTTLQQHLVDGRDMIIIRMPKDFPPFPQKLKFREPQREERICLVTTNFQTKSMSSMVSDTSCTFPSGDGIFWKHWIQTKDGQCGSPLVSTRDGFIVGIHSASNFTNTNNYFTSVPKNFMELLTNQEAQQWVSGWRLNADSVLWGGHKVFMVKPEEPFQPVKEATQL [I15M] |  | 0.0722 | 0.0734 | 0.07 | 0.0879 |  | 0.0653 |  | 0.066 |  | 0.055 | 0.0624 |  |  | 0.0439 |  | 0.0797
8 | MGESLFKGPRDYNPISSSICHLTNESDGHTTSLYGIGFGPFIITNKHLFRRNNGTLVVQSLHGVFKVKDTTTLQQHLVFGRDMIIIRMPKDFPPFPQKLKFREPQREERICLVTTNFQTKSMSSMVSDTSCTFPSGDGIFWKHWIQTKDGQCGSPLVSTRDGFIVGIHSASNFTNTNNYFTSVPKNFMELLTNQEAQQWVSGWRLNADSVLWGGHKVFMVKPEEPFQPVKEATQL [D79F] | 0.073 | 0.0637 | 0.0676 | 0.0401 |  | 0.0692 |  | 0.0525 |  | 0.0604 | 0.0754 |  |  |  | 0.0565 | 0.0644 | 
9 | MGESLFKGPRDYNPISSSICHLTNESDGHTTSLYGIGFGPFIITNKHLFRRNNGTLVVQSLHGVFKVKDTTTLQQHLVDGRDMIIIRMPKDFPPFPQKLKFREPQREERICLVTTNFQTKSMSSMVSDTSCTFPSGDGIFWKHWIQTKDGQCGSPLVSTRDGFIVGIHSTSNFTNTNNYFTSVPKNFMELLTNQEAQQWVSGWRLNADSVLWGGHKVFMVKPEEPFQPVKEATQL [A170T] |  |  |  |  |  |  |  |  |  |  | 0.0618 |  | 0.0642 |  | 0.0634 |  | 
10 | MGESLFKGPRDYNPISSSICHLTNESDGHTTSLYGIGFGPFIITNKHLFRRNNGTLVVQSLHGVFKVKDTTTLQQHLVDGRDMIIIRMPKDFPPFPQKLKFREPQREERICLVTTNFQTKSMSSMVSDTSCTFPSGDGIFWKHWIQTKDGQCGSPLVSTRDGFIVGIHSASNFTNTNNYFTSVPKNFMELLTNQEAQQWVSGWRLNADSVLWGGHKVFMVSPEEPFQPVKEATQL [K221S] | 0.0601 | 0.0575 |  |  |  |  | 0.0669 | 0.056 | 0.0643 | 0.0782 | 0.0627 |  | 0.076 | 0.0612 |  |  | 
11 | MGESLFKGPRDYNPISSSICHLTNESDGHTTSLYGIGFGPFIITNKHLFRRNNGTLVVQSLHGVFKVKDTTTLQQHLVDGRDMIIIRMPKDFPPFPQKLKFREPQREERICLVTTNFQTKSMSSMVSDTSCTFPSGDGIFWKHWIQTKDGQCGSPLVSTRDGFIVGIHSACNFTNTNNYFTSVPKNFMELLTNQEAQQWVSGWRLNADSVLWGGHKVFMVKPEEPFQPVKEATQL [S171C] |  |  | 0.0676 |  | 0.0501 | 0.0622 | 0.0628 |  |  | 0.0765 | 0.067 | 0.0677 |  |  | 0.0704 | 0.0943 | 0.0756
12 | MGESLFKGPRDYNPISSSICHLTNESDGHTTSLYGIGFGPFIITNKHLFRRNNGTLVVQSLHGVFKVKDTTTLQQHLVDGRDMIIIRMPKDFPPFPQKLKFREPQREERICLVTTNFQTKSMSSMVSDTSCTFPSGDGIFWKHWIVTKDGQCGSPLVSTRDGFIVGIHSASNFTNTNNYFTSVPKNFMELLTNQEAQQWVSGWRLNADSVLWGGHKVFMVKPEEPFQPVKEATQL [Q146V] |  |  | 0.102 | 0.064 | 0.0508 | 0.0746 | 0.0735 |  | 0.0907 | 0.078 | 0.0692 | 0.0664 | 0.0903 |  | 0.0564 |  | 
13 | MGESLFKGPRDYNPISSSICHLTNESDGHTTSLYGIGFGPFIITNKHLFRRNNGTLVVQSLHGVFKVKDTTTLQQHLVDGRDMIIIRMPKDFPPFPQKLKFREPQREERICLVTTNFQTKSMSSMVSDTSCTFPSGDGIFWKHWIQTKDGQCGSPLVSTRDGFIVGIHSASNFTNTNNYFTSVPKNFMELLTNQEAQQWVSGWRLNADSVLWGGHKVFMVKPNEPFQPVKEATQL [E223N] | 0.0761 | 0.0586 | 0.0861 |  | 0.0976 | 0.0569 | 0.0757 |  | 0.0808 | 0.073 | 0.0721 |  |  |  |  |  | 
14 | MGESLFKGPRDYNPISSSICHLTNESDGHTTSLYGIGFGPFIITNKHLFRRNNGTLVVQSLHGVFKVKDTTTLQQHLVDGRDMIIIRMPKDFPPFPQKLKFREPQREERICLVTTNFQTKSMSSMVSDTSCTFPSGDGIFWKHWIQTKDGQCGSPLVSTRDGFIVGIHSASNFTNTNNYFTSVPKNFMELLTNQEAQQWVSGWRLNADSVLWGGHKVFMEKPEEPFQPVKEATQL [V220E] | 0.0637 | 0.062 | 0.0825 |  | 0.0489 | 0.0874 | 0.0607 | 0.0595 | 0.0895 | 0.0697 | 0.0593 | 0.0365 |  | 0.0637 |  |  | 
15 | MGESLFKGPRDYNPISSSICHLTNESDGHTTSLYGIGFGPFIITNKHLFRRNNGTLVVQSLHGVFKVKDTTTLQQHLVDGRDMIIIRMPKDFPPFPQKLKFREPQREERICLVTTNFQTKSMSSMVSDTSCTFPSGDGIFWKHWIQTKDGQCGSPLVSTRDGFIVGIHSASNFTNTNNYFTSVPSNFMELLTNQEAQQWVSGWRLNADSVLWGGHKVFMVKPEEPFQPVKEATQL [K185S] |  | 0.0614 | 0.078 |  |  | 0.0637 |  | 0.0468 | 0.0992 |  | 0.0719 | 0.0647 |  |  |  | 0.0636 | 0.096
16 | MGESLFKGPRDYNPISSSICHLTNESDGHTTSLYGIGFGPFIITNKHLFRRNNGTLVVQSLHGVFKVKDTTTLQQHLVDGRDMIIIRMPKDFPPFPQKLKFREPQREERICLVTTNFQTKSMSSMVSDTSCTFPSGDGIFWKHWIQTKDGQCGSPLVSTRDGFIVGVHSASNFTNTNNYFTSVPKNFMELLTNQEAQQWVSGWRLNADSVLWGGHKVFMVKPEEPFQPVKEATQL [I167V] |  | 0.0731 |  |  |  | 0.0521 | 0.0485 |  | 0.0816 | 0.0805 | 0.0699 |  | 0.0691 |  |  | 0.0638 | 
